± gives the standard deviation. Whole data set: some 3,700 sequences, median “pre-steady-state target cleavage rate” near 0.02, cut for the highest 2% near 0.23. This is a selection; strong and weak results do not stand in their true shares.
System: MILI (PIWIL2) piRISC loaded with Kctd7 piRNA (26 nt)
Test: pre-steady-state target cleavage rate (min^-1); MIWI and MILI are mouse PIWI proteins and EfPiwi is from a freshwater sponge; tags in brackets are library labels; higher = faster piRNA-guided slicing of the target
Settings: guide: Kctd7 piRNA 5'p-UGUUAAUCUCUCAGAGAAGGUGACAG; auxiliary factor: 500 nM mouse GTSF1
In short: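 Cleave-'n-Seq: a transcribed, DNA-blocked target RNA library (0.1 nM) was mixed with 1 nM active affinity-purified piRISC carrying one synthetic guide, with or without 500 nM GTSF1 partner protein, in HEPES–potassium acetate buffer at 33 °C for 0–8 or 0–960 min. Uncleaved targets were sequenced and normalised to depth and to weakly complementary targets. Three trials were pooled, and k3 was capped at 0.0001 min^-1. The pre-steady-state cleavage rate came from a burst-and-steady-state fit.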

| Sequence | pre-steady-state target cleavage rate |
| --- | --- |
| UAGUGACAGUGCUUCUCUGAGUGAAUAACA | < 0.0001 |
| UAGUCUGACACCUUCUCUGAGAGAUUUACA | 0.116 ± 0.017 |
| UAGUGACAGACCUUCUCUGAGAGAAUUAACA | 0.0476 ± 0.017 |
| UAGUGUGUCACCUUCUCUGAGAGGUUAACA | 0.0851 ± 0.015 |
| UAGUCUGUCACCUUCUGUGAGAGAUUUACA | 0.0271 ± 0.0073 |
| UAGUGACUCACCAUGUCUGAGAGAUUAACA | 0.0653 ± 0.0084 |
| UAGUGACAGACGUUGUCUGAGAGAUUAACA | 0.0382 ± 0.0048 |
| UAGUGACACACGUUCUCUGACAGAUUAACA | 0.00631 ± 0.0034 |
| UAGUCUGUGUGCUUCUCUGAGAGAUUAACA | 0.0176 ± 0.0032 |
| UAGUGAGUCACGUUCUCUGAGACAUUAACA | 0.0246 ± 0.006 |
| UAGUGACACACCUUCUCUGAGAGAUUAAAA | 0.125 ± 0.026 |
| UAGUGUGUCACCUUGUCAGAGAGAUUAACA | 0.0472 ± 0.0087 |
| UAGUCUGUCACCUACUCUGAGAGAUAAACA | 0.0816 ± 0.017 |
| UAGUGUGUCACCUUCUCUGUGAGAUUAACA | 0.0704 ± 0.011 |
| UAGUGAGUCUCCUACUCUGAGAGAUUAACA | 0.101 ± 0.0099 |
| UAGUGAGUCACCUUCGCUGAGAGAUUAACA | 0.151 ± 0.023 |
| UAGUGACAGUCCUUGCUCUGAGAGAUUAACA | 0.0199 ± 0.0059 |
| UAGUGACACACCUACUCUGACAGAUUAACA | 0.0136 ± 0.0053 |
| UAGUCUCUCACCUUCUCUGAGACAUUAACA | 0.0859 ± 0.0086 |
| UAGUGUGAGACCUUCUCUGAGAGAUUAACA | 0.101 ± 0.0091 |
| UAGUGUGUCACCUUCUGUGACAGAUUAACA | 0.0357 ± 0.015 |
| UAGUGUGUCUACCUUCUCUGAGAGAUUAACA | 0.0403 ± 0.0089 |
| UAGUGAGUCAACCUUCUCUGAGAGAUUAACA | 0.0964 ± 0.015 |
| UAGUCUGACACCUUCUGUGAGAGAUUAACA | 0.121 ± 0.011 |

| Sequence | pre-steady-state target cleavage rate |
| --- | --- |
| UAGUGUGUCACCUUCUCUGAGACAUAAACA | 0.0193 ± 0.0083 |
| UAGUGACAGUGCUUCACUGAGAGAUUAUCA | 0.0073 ± 0.0034 |
| UAGUGUGUCAGGUUCUCUGAGAGAUUAAGA | 0.0334 ± 0.0089 |
| UAGUGUGUCACCAUCUCUGAGAGAAUAACA | 0.132 ± 0.04 |
| UAGUGACAGUCCUUCUCUGUGAGUUUAACA | 0.00949 ± 0.0025 |
| UAGUGUGUCACCUACUCAGAGAGAUUAACA | 0.082 ± 0.008 |
| UAGUGACACACCUUCUCAGAGACAUUAACA | 0.0541 ± 0.011 |
| UAGUGACAGUGCUUCUCUGAGAGAUUUACA | 0.0148 ± 0.0037 |
| UAGUGACUCACCUACUCUGAGAGAUUAUGA | 0.0205 ± 0.0076 |
| UAGUGACAGACCUCCUCUGAGAGAUUAACA | 0.146 ± 0.015 |
| UAGUGACAGUCCUUCAGUGAGAGAUUAACA | 0.0136 ± 0.0045 |
| UAGUGACACACCUUCUCUGAGAGUUUAACA | 0.139 ± 0.028 |
| UAGUGACAGUGCUUCUCUGAGAGUUAACA | < 0.0001 |
| UAGUGACAGUCCUUCUAUGAGAGAUUAACA | 0.0377 ± 0.013 |
| UAGUGAGUCACCAUCUCUGAGAGAUAAACA | 0.0772 ± 0.028 |
| UAGUCUGUCAGCUACUCUGAGAGAUUAACA | 0.153 ± 0.007 |
| UAGUGACAGUGCUUCUCUGAGAGAUAACA | < 0.0001 |
| UAGUGAGUCACCUUCUAUGAGAGAUUAACA | 0.112 ± 0.016 |
| UAGUGAGUCACCUUGUGUGAGAGAUUAACA | 0.0842 ± 0.015 |
| UAGUGAGUCACCUUCUCUAGAGAUUAACA | 0.0134 ± 0.0056 |
| UAGUCUGUCAGCUUCUGUGAGAGAUUAACA | 0.13 ± 0.0088 |
| UAGUGACAGUCCUUCUCUGAGAGAUUAGCA | 0.0121 ± 0.0037 |
| UAGUGACUCUCGUUCUCUGAGAGAUUAACA | 0.0994 ± 0.013 |
| UAGUGACACACCUUCUCUGAAAGAUUAACA | 0.0739 ± 0.0057 |

| Sequence | pre-steady-state target cleavage rate |
| --- | --- |
| UAGUCUGUCACCUUCACUGAGUGAUUAACA | 0.00739 ± 0.0041 |
| UAGUGACUCACCUUCUCUGAGAGAUCAACA | 0.181 ± 0.031 |
| UAGUGAGACUCCUUCUCUGAGAGAUUAACA | 0.156 ± 0.0066 |
| UAGUGACAGUGCUUCUCAGACAGAUUAACA | 0.00299 ± 0.0027 |
| UAGUCACACACCUUCUCUGAGAGAUUAAGA | 0.187 ± 0.033 |
| UAGUGACUCACCUUCUCUGAGGGAUUAACA | 0.0864 ± 0.011 |
| UAGUGACAGUCCUUCUCUGAGGGAUUAACA | 0.0101 ± 0.0035 |
| UAGUGACAGUCCUUGUCUGAGAGAUAAACA | 0.00456 ± 0.0042 |
| UAGUGACAGACCUAGUCUGAGAGAUUAACA | 0.0533 ± 0.012 |
| UAGUGACUCACCUUCUCUGAGAGAUAAUCA | 0.0548 ± 0.019 |
| UAGUCUGUCACGUUGUCUGAGAGAUUAACA | 0.115 ± 0.01 |
| UAGUGACAGUCCUUGUCUGAGAGAUUAACA | 0.0364 ± 0.0077 |
| UAGUGACUCUCCUUCUCUGAGAGAAUAACA | 0.0117 ± 0.0045 |
| UAGUGAGUCACGUUCUCUGAGAGAUUAUCA | 0.0809 ± 0.019 |
| UAGUGACAGUGCUUGUGUGAGAGAUUAACA | 0.0111 ± 0.0031 |
| UAGUGUGUCACCUUCUCUGAGAGAUUAGCA | 0.117 ± 0.028 |
| UAGUGUGACACCUUCUCUGUGAGAUUAACA | 0.044 ± 0.007 |
| UAGUCUGUCACCUUCAUCUGAGAGAUUAACA | 0.204 ± 0.052 |
| UAGUGACACACCUUCUCUGAGAGAUUGAACA | 0.176 ± 0.022 |
| UAGUGACUCACCUUCUCAGAGAGAAUAACA | 0.00443 ± 0.0038 |
| UAGUGACAGUCCUUCUCUGCGAGAUUAACA | 0.0166 ± 0.005 |
| UAGUGACAGUGCUUCUCUGAGACAUUAACA | 0.00255 ± 0.0024 |
| UAGUCUGUCACCUUCUCUGUGAGAUUAACA | 0.0688 ± 0.0091 |
| UAGUGACACCCUUCUCUGAGAGAUUAACA | 0.085 ± 0.014 |

Reference: the supplement of paper PMC10338343
